Reference: the supplement of paper PMC8813932
Counter-ions that a name gives are not always drawn. ± gives the standard deviation of the averaged measurements. The list shows a part of the results. Most values come without repeats; read them as rough.

Legend:
Test in all cases: log2 surviving fraction relative to plate median (drug vs vehicle, or drug+dl922-947 vs dl922-947 alone); ovarian cancer lines: OVCAR4 is platinum-sensitive while Ov4Cis resists cisplatin and Ov4Carbo carboplatin; higher = more cell survival
Settings in all cases: compound concentration: 10 uM, 192 h
OVCAR4 = system: OVCAR4
Ov4Carbo = system: Ov4Carbo
Ov4Cis = system: Ov4Cis
[1] = dl922-947 oncolytic adenovirus co-treatment: MOI 10
[2] = dl922-947 oncolytic adenovirus co-treatment: none

| SMILES | log2 surviving fraction (OVCAR4; [1]) | log2 surviving fraction (OVCAR4; [2]) | log2 surviving fraction (Ov4Carbo; [1]) | log2 surviving fraction (Ov4Carbo; [2]) | log2 surviving fraction (Ov4Cis; [1]) | log2 surviving fraction (Ov4Cis; [2]) |
| --- | --- | --- | --- | --- | --- | --- |
| O=C1c2c(O)ccc(O)c2C(=O)c2c(NCCNCCO)ccc(NCCNCCO)c21 [Mitoxantrone Hydrochloride] | -8.67 ± 1.3 | -12.1 ± 6.9 | -7.36 | -11.9 | -8.02 | -15.8 |
| O=C([O-])c1ccccc1O.[Na+] [Sodium salicylate] | 0.122 ± 0.073 | 0.0878 ± 0.27 | -0.291 | -0.24 | -0.0217 | 0.151 |
| O=C1Cc2cc(CCN3CCN(c4nsc5ccccc45)CC3)c(Cl)cc2N1 [Ziprasidone hydrochloride] | 0.542 ± 0.36 | 0.296 ± 0.3 | 0.185 | 1.01 | -0.263 | 0.162 |
| CCc1c2c(nc3ccc(OC(=O)N4CCC(N5CCCCC5)CC4)cc13)-c1cc3c(c(=O)n1C2)COC(=O)[C@]3(O)CC [Irinotecan HCl Trihydrate (Campto)] | -7.69 ± 0.48 | -8.66 ± 4.1 | -6.9 | -10.4 | -7.56 | -11.9 |
| CS(=O)(=O)c1ccc(C2=C(c3ccccc3)C(=O)OC2)cc1 [Rofecoxib (Vioxx)] | -0.226 ± 0.062 | 1.53 ± 0.26 | -0.138 | 0.268 | -0.00402 | -2.81 |
| C[C@@H](O[C@H]1OCCN(Cc2nn(P(=O)(O)O)c(=O)[nH]2)[C@H]1c1ccc(F)cc1)c1cc(C(F)(F)F)cc(C(F)(F)F)c1 [Fosaprepitant dimeglumine] | -0.705 ± 0.54 | -1.14 ± 0.15 | -0.519 | -1.3 | -1.59 | -4.43 |
| CCOC(=O)c1ccc(OC(=O)CCCCCNC(=N)N)cc1 [Gabexate mesylate] | 0.344 ± 0.44 | -0.0397 ± 0.93 | -0.00419 | -0.245 | 0.591 | 0.0969 |
| O=c1cc[nH]c(=S)[nH]1 [2-Thiouracil] | 0.243 ± 0.47 | -0.183 ± 1.3 | -0.0325 | 0.534 | -1.17 | -1.94 |
| CC(CN(C)C)CN1c2ccccc2CCc2ccccc21 (stereo unspecified) [Trimipramine Maleate] | -0.985 ± 0.91 | -1.01 ± 0.53 | -1.13 | -1.38 | -0.858 | -1.32 |
| Clc1ccccc1CN1CCc2sccc2C1 [Ticlopidine HCl] | 0.406 ± 0.28 | 0.216 ± 0.021 | -0.0843 | -0.127 | 1.14 | 0.0145 |
| CN1CCCCC1CCN1c2ccccc2Sc2ccc([S+](C)[O-])cc21 (stereo unspecified) [Mesoridazine Besylate] | -0.432 ± 0.07 | 0.246 ± 0.32 | -0.549 | -0.216 | -1.14 | -0.0346 |
| Nc1nc(O)c2ncn(CCC(CO)CO)c2n1 [Penciclovir] | -0.0173 ± 0.88 | -0.247 ± 1.1 | 0.91 | -4.9 | -1.41 | -1.29 |
| Cn1c(CCCC(=O)O)nc2cc(N(CCCl)CCCl)ccc21 [Bendamustine HCL] | 0.373 ± 0.066 | 3.27 ± 2.6 | 0.752 | 0.884 | 0.438 | 0.698 |
| Cc1onc(-c2ccccc2)c1C(=O)N[C@@H]1C(=O)N2[C@@H]1SC(C)(C)[C@@H]2C(=O)O [Oxacillin sodium monohydrate] | 0.247 ± 0.57 | 1.35 ± 0.046 | 0.921 | 0.433 | 1.41 | 0.971 |
| O=P1(NCCCl)OCCCN1CCCl (stereo unspecified) [Ifosfamide] | -0.165 ± 1.4 | 0.426 ± 0.49 | 0.116 | 0.649 | 0.294 | 0.227 |
| O=c1c(-c2ccc(O)cc2)coc2cc(O)cc(O)c12 [Genistein] | -0.619 ± 0.88 | -0.144 ± 0.64 | -1.39 | -0.799 | -1.24 | -1.21 |

| SMILES | log2 surviving fraction (OVCAR4; [1]) | log2 surviving fraction (OVCAR4; [2]) | log2 surviving fraction (Ov4Carbo; [1]) | log2 surviving fraction (Ov4Carbo; [2]) | log2 surviving fraction (Ov4Cis; [1]) | log2 surviving fraction (Ov4Cis; [2]) |
| --- | --- | --- | --- | --- | --- | --- |
| CC(C)(C)NC(=O)[C@H]1CC[C@H]2[C@@H]3CC[C@H]4NC(=O)C=C[C@]4(C)[C@H]3CC[C@]12C [Finasteride] | 0.894 ± 0.12 | 3.39 ± 2.6 | 0.634 | 1.76 | 0.762 | 0.242 |
| COc1ccc(CC(C)NCC(O)c2ccc(O)c(NC=O)c2)cc1 (stereo unspecified) [Formoterol hemifumarate] | 1.8 ± 1.3 | -0.538 ± 0.22 | 2.03 | 0.0303 | 0.73 | 0.152 |
| CCCCC1C(=O)N(c2ccccc2)N(c2ccccc2)C1=O [Phenylbutazone (Butazolidin, Butatron)] | 0.358 ± 0.93 | 0.822 ± 0.36 | -0.635 | 0.0833 | -0.0554 | 0.839 |
| CO/N=C(\C(=O)N[C@@H]1C(=O)N2C(C(=O)OCOC(=O)C(C)(C)C)=C(/C=C\c3scnc3C)CS[C@H]12)c1csc(N)n1 [Cefditoren pivoxil] | 0.625 ± 1.5 | -0.308 ± 1.4 | -1.08 | 0.82 | 0.282 | 1.15 |
| CCCc1cc(C(N)=S)ccn1 [Protionamide (Prothionamide)] | 0.374 ± 1.6 | -0.47 ± 1.1 | 0.835 | -0.00748 | -0.26 | -0.639 |
| CN1CCN(C2=Nc3ccccc3Oc3ccc(Cl)cc32)CC1 [Loxapine Succinate] | -1.28 ± 0.61 | -0.439 ± 0.52 | -0.167 | -1.14 | -0.515 | -1.52 |
| CN(C)/N=N/c1[nH]cnc1C(N)=O [Dacarbazine (DTIC-Dome)] | 0.0438 ± 0.15 | 1.89 ± 3.1 | -0.768 | -0.862 | -0.346 | -0.329 |
| Cc1nc2n(c(=O)c1CCN1CCC(c3noc4cc(F)ccc34)CC1)CCCC2 [Risperidone (Risperdal)] | -0.243 ± 0.033 | -0.22 ± 0.2 | 0.686 | -0.716 | -0.208 | -0.523 |
| COC(=O)C1=CO[C@@H](O[C@@H]2O[C@H](CO)[C@@H](O)[C@H](O)[C@H]2O)[C@@H]2C(CO)=CC[C@H]12 [Geniposide] | 0.295 ± 0.43 | 0.925 ± 0.63 | -0.094 | 0.485 | 0.371 | 0.944 |
| CCCCC(C)(O)C/C=C/[C@H]1[C@H](O)CC(=O)[C@@H]1CCCCCCC(=O)OC (mixture of isomers) [Misoprostol] | -0.18 ± 0.32 | -1.48 ± 0.25 | -0.791 | -1.1 | -1.04 | -0.53 |
| C[N+]1(C)CCOC(O)(c2ccc(-c3ccc(C4(O)C[N+](C)(C)CCO4)cc3)cc2)C1 (stereo unspecified) [Hemicholinium Bromide] | 0.181 ± 0.36 | 0.342 ± 1.1 | -0.148 | 0.0572 | 0.562 | 0.473 |
| CC1Cc2ccccc2N1NC(=O)c1ccc(Cl)c(S(N)(=O)=O)c1 (stereo unspecified) [Indapamide (Lozol)] | -0.215 ± 1.3 | -0.393 ± 0.66 | 0.094 | 1.39 | -0.76 | -0.474 |
| C[C@@H](O)[C@H]1C(=O)N2C(C(=O)[O-])=C(SC3Cn4cnc[n+]4C3)[C@H](C)[C@H]12 (stereo partly specified) [Biapenem] | -0.242 ± 0.65 | -0.43 ± 0.25 | -0.209 | -0.99 | -0.681 | -0.283 |
| CCCCCCCCCCCCCCCC[n+]1ccccc1 [Cetylpyridinium Chloride] | -9.64 ± 0.63 | -11.2 ± 7 | -7.5 | -10.9 | -8.9 | -15 |
| CN1CCC(=C2c3ccccc3C=Cc3ccccc32)CC1 [Cyproheptadine HCl (Periactin)] | -2.1 ± 0.7 | -1.69 ± 1.6 | -3.11 | -1.13 | -4.36 | -2.76 |
